About 75 (0.02%) of roughly 420,000 compounds were called active. Inconclusive means that the source gave no clear call. Such entries were picked first, then a sample of the others. Calls come from the whole dose curve; as a rule, active = well fitted activation curve with a large enough effect; inconclusive = small, poorly fitted or top-dose-only effect; inactive = no such curve, though single readings can be large or run the other way. A potency beside an inconclusive call is a rough fit, not a confirmed value.
assay: qHTS for Inducers of the Endoplasmic Reticulum Stress Response (ERSR) in Human Glioma: qHTS; conditions: U87-MG GRP78 promoter luciferase reporter, 16 h; activation: active compounds read high; note: nearly all actives have a fitted effect of over 35% in size; for activation: % of control where 0% means no effect
Method in brief: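 Stably transfected U87-MG human glioma cells carrying a GRP78-based luminescent sensor were seeded at 1000 cells/well, pin-dosed with compounds and incubated 16 h. Luciferase reagent was then added, and end-point luminescence was read after 10 min at room temperature.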
Potency is the fitted concentration of half-maximal effect; tags give direction and shape of the fitted curve.

Question: For CCOC(=O)c1ccc(N2C(=O)c3n[nH]c(-c4ccco4)c3C2c2ccc(C)cc2)cc1 (stereo not given), which Potency is on record?
Answer: inconclusive: 15.8 µM [activator, full curve, poor fit]

Question: For O=C(O)c1cccc(N/N=C/c2ccc(F)c(F)c2)c1, which activation is on record?
Answer: inactive: -10.2%

Question: With CSc1ccc(/C=C/C(=O)c2ccc(NC(C)=O)cc2)cc1 as the molecule, how does the Potency read?
Answer: inconclusive: 28.2 µM [activator, single point]

Question: Which activation does the source give for CC(Oc1ccc(Cl)cc1)C(=O)Nc1ccccc1N1CCOCC1 (stereo not given) here?
Answer: inactive: -4.46%

Question: For O=[N+]([O-])c1ccc(CSc2ccc(S(=O)(=O)N3CCCCCC3)cn2)cc1, which activation is on record?
Answer: inactive: -2.82%

Question: For Cc1ccc(CNc2ccc3c(c2)OCO3)cc1, which activation is on record?
Answer: inactive: 11.6%

Question: Which activation does the source give for CCN(CC)/[N+]([O-])=N/OCOC(=O)C(C)c1ccc(CC(C)C)cc1 (stereo not given) here?
Answer: inactive: -1.41%

Question: Which Potency does the source give for C[C@H]([C@H](C)N1CC(=O)NC(=O)C1)N1CC(=O)NC(=O)C1 here?
Answer: inconclusive: 44.7 µM [activator, partial curve, poor fit]

Question: With O=c1[nH]c(NCCCO)nc2c1C1(CCCC1)Cc1ccccc1-2 as the molecule, how does the activation read?
Answer: inactive: -3.98%

Question: For COc1ccc(NC(=O)CCn2cccc2)cc1, which activation is on record?
Answer: inactive: 1.98%

Question: For Cc1ccc2nc(-c3ccc(NS(=O)(=O)c4ccccc4)cc3)sc2c1, which Potency is on record?
Answer: inconclusive: 39.8 µM [activator, partial curve, poor fit]

Question: For CC1=C(C(N)=O)C(c2ccccc2Br)n2ncnc2N1 (stereo not given), which activation is on record?
Answer: inactive: -1.28%

Question: Which Potency does the source give for CC1(C)O[C@@H]2[C@H](O1)[C@@H](COS(=O)(=O)O)O[C@H]2n1cnc2c(=O)[nH]cnc21 here?
Answer: inconclusive: 50.1 µM [activator, single point]

Question: With CC1CCC(NC(=O)CCc2cn(Cc3ccccc3Cl)c3ccccc23)CC1 (stereo not given) as the molecule, how does the activation read?
Answer: inactive: 0.0066%

Question: With CCOC(=O)CSc1nnc2n(Cc3ccccc3)c(=O)c3c4c(sc3n12)CCC4 as the molecule, how does the Potency read?
Answer: inconclusive: 2 µM [activator, full curve, poor fit]

Question: For CNC(=S)N/N=C/c1ccc(C(C)C)cc1, which Potency is on record?
Answer: inconclusive: 2 µM [activator, full curve, poor fit]

Question: With CCOC(=O)c1ccc(N2C(=O)c3n[nH]c(-c4ccco4)c3C2c2ccc(OCC)cc2)cc1 (stereo not given) as the molecule, how does the Potency read?
Answer: inconclusive: 14.1 µM [activator, full curve, poor fit]

Question: Which Potency does the source give for O=C(O)c1ccc(NC(=S)NC(=O)c2ccc3ccccc3c2)cc1 here?
Answer: inconclusive: 44.7 µM [activator, single point]

Question: With COc1cc(/C=C/c2ccc3c(Br)cc(Br)c(O)c3n2)ccc1O as the molecule, how does the Potency read?
Answer: active: 28.2 µM

Question: With CCOC(=O)CC(=O)CSc1nc2c(c(C)c1C#N)CCC2 as the molecule, how does the Potency read?
Answer: inconclusive: 39.8 µM [activator, partial curve, poor fit]
